# Reference: PMC4336329 (PLoS ONE, 2015)
# Screen size: about 310,000 compounds; about 14,000 (4.5%) showed an effect of 50% or more. The effect is printed as a negative number. This is one part of the list.
# Biological target: human ether-à-go-go-related gene (hERG) potassium channel (human, UniProt Q12809)
# Assay: primary screen, population patch clamp on CHO cells stably expressing hERG
# 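Also: peak tail current of the secondary pulse compared with the same well before compound.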
# Chain of human ether-à-go-go-related gene (hERG) potassium channel (Q12809 whole entry, looked up): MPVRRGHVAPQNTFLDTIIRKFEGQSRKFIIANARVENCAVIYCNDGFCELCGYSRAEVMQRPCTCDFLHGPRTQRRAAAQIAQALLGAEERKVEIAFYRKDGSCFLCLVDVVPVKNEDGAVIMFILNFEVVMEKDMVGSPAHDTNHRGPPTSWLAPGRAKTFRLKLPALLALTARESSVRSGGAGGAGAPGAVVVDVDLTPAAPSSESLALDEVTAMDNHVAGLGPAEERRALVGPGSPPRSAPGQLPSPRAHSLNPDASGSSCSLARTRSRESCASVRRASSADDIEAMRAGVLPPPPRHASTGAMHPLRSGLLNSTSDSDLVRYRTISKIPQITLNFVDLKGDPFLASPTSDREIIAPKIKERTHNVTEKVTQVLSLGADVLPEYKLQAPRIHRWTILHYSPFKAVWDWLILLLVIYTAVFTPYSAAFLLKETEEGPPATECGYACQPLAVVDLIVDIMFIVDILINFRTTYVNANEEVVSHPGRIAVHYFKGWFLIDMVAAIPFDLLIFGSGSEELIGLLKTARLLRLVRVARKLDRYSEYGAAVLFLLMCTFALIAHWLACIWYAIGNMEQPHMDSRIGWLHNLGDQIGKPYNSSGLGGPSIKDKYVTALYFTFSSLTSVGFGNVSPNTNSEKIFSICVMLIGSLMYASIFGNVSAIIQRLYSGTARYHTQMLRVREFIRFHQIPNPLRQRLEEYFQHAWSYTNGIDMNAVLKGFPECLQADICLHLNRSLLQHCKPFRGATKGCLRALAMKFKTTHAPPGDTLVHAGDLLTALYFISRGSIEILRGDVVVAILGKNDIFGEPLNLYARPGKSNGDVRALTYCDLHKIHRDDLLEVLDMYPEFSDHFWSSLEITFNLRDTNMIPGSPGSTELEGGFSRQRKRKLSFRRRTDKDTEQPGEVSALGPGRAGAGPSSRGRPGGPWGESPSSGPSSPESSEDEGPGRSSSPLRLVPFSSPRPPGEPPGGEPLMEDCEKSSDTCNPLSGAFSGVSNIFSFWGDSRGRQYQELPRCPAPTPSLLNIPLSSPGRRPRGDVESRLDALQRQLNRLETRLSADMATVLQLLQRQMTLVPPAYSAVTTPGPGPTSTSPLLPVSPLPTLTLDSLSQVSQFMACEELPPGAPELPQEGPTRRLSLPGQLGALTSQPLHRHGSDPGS
row,Compound,"hERG current change (%, negative = inhibition) at 10uM [%]"
1,CN=c1scc(-c2ccc([N+](=O)[O-])cc2)n1/N=C/c1ccco1,11.6
2,O=C(COc1ccc2ccccc2c1Br)NNC(=O)Nc1ccccc1,0.428
3,COc1cccc(N2C(=O)CC(N3CCc4ccccc4C3)C2=O)c1 (stereo not drawn),13.1
4,Cc1cccc(N(O)C(=O)Nc2cccc(Cl)c2)c1,13.5
5,O=C(O)c1cnc(-c2ccccc2)nc1Sc1cccc(Cl)c1,26.7
6,COC(=O)C1=C[C@@H](C(=O)OC)[C@@H]2C3=C(C(=O)[C@]2(C)NC(=O)c2ccccc2)[C@H](C)n2c(=O)n(C)c(=O)n2[C@@H]3C1,0.851
7,Cl.O=C(NCCN1CCCC1)c1ccc(Cl)cc1Cl,-1.56
8,COC(=O)c1nc(C(=O)OC)c(C(=O)OC)nc1C(=O)OC,11
9,O=C(NCc1ccccc1Cl)C1CCN(S(=O)(=O)N2CCOCC2)CC1,12.9
10,Cc1cc(C)c(S(=O)(=O)c2ccc(Cl)cc2C)c(Cl)n1,9.65
11,Cc1noc(C)c1CSCC(=O)OCC(=O)Nc1sccc1C#N,-17.9
12,CN(C)c1ccc(/C=C/c2nc3ccccc3c(=O)n2CCO)cc1,4.2
13,CCOCCn1c(N2CCCC2)nc2c1c(=O)[nH]c(=O)n2C,15.1
14,CC(=O)Nc1ccc(NC(=O)C2CCCN2C(=O)NC2CCCCC2)cc1 (stereo not drawn),12.5
15,CCCn1c(=O)c(C(=O)NCCc2ccc(OC)c(OC)c2)c(O)c2ccccc21,10.5
16,O=C(Nc1cccc(S(=O)(=O)N2CCCCC2)c1)Nc1ccc(Cl)cc1Cl,7.77
17,CCOC(=O)c1c(NC(C)=O)sc2c(O)c(Br)cc(Br)c12,-2.63
18,C=CCc1ccc(OCC(O)CN2CCC(Cc3ccccc3)CC2)c(OC)c1.Cl (stereo not drawn),-77.5
19,COc1ccc2[nH]c(=O)c(CN(C3CCCCC3)C(c3nnnn3Cc3ccco3)C(C)C)cc2c1 (stereo not drawn),11
20,O=C(COc1ccccc1Cl)Nc1ccc(N2CCCC2)cc1,12.9
21,CCn1nnnc1SCC(=O)Nc1ccc(OC)cc1,5.12
22,COc1ccccc1N1CCN(S(=O)(=O)c2ccccc2F)CC1,-23.3
23,CCCS(=O)(=O)N1CCN(CC2CC3C=CC2C3)CC1.O=C(O)C(=O)O (stereo not drawn),-5.93

row,Compound,"hERG current change (%, negative = inhibition) at 10uM [%]"
1,COc1ccc(NC(=O)CC2C(=O)N(C)C(=S)N2Cc2cccs2)cc1 (stereo not drawn),-26.7
2,OCCC1CN(CC(c2ccccc2)c2ccccc2)CCN1C1CCCC1 (stereo not drawn),-71.2
3,CC1CC(C)CN(CCCNC(=O)c2cn(C)c3ccc(S(=O)(=O)N4CCCC4)cc3c2=O)C1 (stereo not drawn),-15.3
4,Cc1cc(NC(=O)CCCN2C(=O)c3cccnc3C2=O)ccc1Br,-11.8
5,Cc1cccc(-n2nnnc2-c2cnccc2C(F)(F)F)c1C,-1.03
6,CCOC(=O)c1c(N)sc2c1CCC1C(=O)N(C3CCCCC3)C(=O)C21 (stereo not drawn),3.56
7,CC(=O)N/N=C(\C)CC(=O)NC(C)(C)C,11.1
8,O=C1N=C(N2CCCC2C(=O)O)S/C1=C\c1ccco1 (stereo not drawn),35
9,Cc1cccc(OCC(=O)NCc2ccncc2)c1C,-1.08
10,CCn1cc(CN2CCC(n3nccc3NC(=O)CCc3ccccc3)CC2)cn1,2.28
11,Cc1nc(N=C(N)N)nc2ccccc12,23.6
12,CCn1c(COc2ccccc2C)nnc1SCC(=O)O,16.3
13,CC1(C)CC(=O)c2sc(NS(=O)(=O)c3cc(Cl)ccc3Cl)nc2C1,22
14,C#CCOc1nc2c(c(=O)n(C)c(=O)n2C)n1Cc1ccccc1,-1.57
15,O=C(NCc1ccccc1)C1CC(=O)N(C2CCCCC2)C1 (stereo not drawn),17.8
16,Cn1sc(NC(=O)c2ccccc2Cl)nc1=O,-3.63
17,Cc1cc(Br)c(NC(=O)CN(C)CCOc2ccccc2)c(Br)c1,-19.5
18,Cc1cccc(NC(=S)Nc2cccc(C(F)(F)F)c2)n1,3.8
19,ClC1=CCC2CN(CCN3CCCCC3)CC2C1 (stereo not drawn),6.22
20,Cc1cc(C(=O)Nc2nccs2)c2cc(F)ccc2n1,7.7
21,C=C(C)Cn1c(SCC(=O)N/N=C/c2cccc(O)c2)nc2ccccc2c1=O,9
22,Cc1cc2nc(-c3ccc(SCC(=O)N4CCOCC4)nc3)[nH]c2cc1C,4.82
23,CC(C)CCn1c(=S)[nH]c2ncccc2c1=O,-7.69

row,Compound,"hERG current change (%, negative = inhibition) at 10uM [%]"
1,COc1ccc(N2CCN(C(=O)c3cccc(NC(=O)c4ccco4)c3)CC2)cc1,-43.8
2,COc1ccc2nc(NC(=O)Cn3cnc4c(=O)n(C)c(=O)n(C)c43)sc2c1,-67.9
3,O=C(c1cnc2nc3ccccc3n2c1)c1cc(F)ccc1O,2.44
4,CCOC(=O)c1c(C)[nH]c(C(=O)CSc2ccccc2)c1C,3.05
5,COc1ccc(-c2c(C)c3ccc(OCC(C)=O)cc3oc2=O)cc1,12.4
6,CC(=O)c1cccc(NC(=O)N2C3CCC2CC(NC(=O)Nc2ccccc2)C3)c1 (stereo not drawn),8.61
7,CCN1CCN(S(=O)(=O)c2ccc(Cl)c(C(=O)N(C)CCOc3ccc(Cl)cc3)c2)CC1,-52.8
8,CSc1ccc(N/N=C(/C#N)S(=O)(=O)C(C)(C)C)cc1,14.9
9,O=C(COC(=O)c1ccc2ncsc2c1)NCc1cccc(Cl)c1,-11.2
10,COc1ccc(Br)cc1/C=N/NC(=O)c1ccco1,12.9
11,CC(=O)c1ccc(N2C(=NC(=O)COc3ccccc3)SC3CS(=O)(=O)CC32)cc1 (stereo not drawn),-3.89
12,CN(C)C1=NCCN1CCCC1CCCCC1,-38.6
13,COCCn1c(C)cc(C(=O)CN2C(=O)NC3(CCCCCCC3)C2=O)c1C,-59
14,O=C(NCCSc1ccccc1)c1ccco1,0.234
15,O=C(COC(=O)C1CC2CCCC(C1)C2=O)Nc1ccccc1 (stereo not drawn),0.275
16,Cc1c(C(=O)OCC(C)C)[nH]c2c1C(=O)CC(c1ccco1)C2 (stereo not drawn),-8.81
17,COc1ccc(-n2nc3c(c2NC(=O)C(C)Oc2ccccc2)CS(=O)(=O)C3)cc1 (stereo not drawn),1.66
18,CCN(CC)c1ccc(/C=N/NC(=O)CNC(=O)c2cccs2)cc1,-1.96
19,Cc1oc2ccc(O)cc2c1C(=O)c1ccc([N+](=O)[O-])cc1,-6.29
20,CCCN(CCC)S(=O)(=O)c1cccc(C(=O)Nc2ccc3c(c2)OCO3)c1,-26.5
21,N=C1CCC(=N)c2c1c(O)c1ccccc1c2O,9.3
22,COc1ccc(CCc2nnc(N)s2)cc1OC,12.3
23,O=C(NC1CCCCC1)C1c2ccccc2C(=O)N1Cc1ccc2c(c1)OCO2 (stereo not drawn),25.3

row,Compound,"hERG current change (%, negative = inhibition) at 10uM [%]"
1,CCN1CCN(Cc2nc3cc(NC(=O)COc4ccc([N+](=O)[O-])cc4)ccc3n2C)CC1,-18.7
2,COc1ccccc1CNC(=O)c1cccnc1,18
3,Cn1c(N)c(C(=O)COC(=O)c2cccc(S(=O)(=O)N3CCCCC3)c2)c(=O)n(C)c1=O,-34.2
4,CCCCCCSc1cc(-c2nc3ccc(Cl)cn3c2NC2CCCCC2)ccc1OC.O=C(O)C(F)(F)F,7.13
5,Cc1nc(CN2CCN(C(=O)CCc3nnc(Cc4c[nH]c5ccccc45)o3)CC2)cs1,31.9
6,COc1ccc(CCN2CC(C(=O)NCc3c(C)n[nH]c3C)CCC2=O)cc1 (stereo not drawn),7.61
7,Cc1ccccc1CNC(=O)CCNS(=O)(=O)c1ccc(OC(F)(F)F)cc1,5.29
8,Cc1ccc(S(=O)(=O)Cn2nnnc2C(C(C)C)N2CCN(C(=O)c3ccco3)CC2)cc1.Cl (stereo not drawn),-34.4
9,COc1ccc(OCCCN(C)Cc2ccccc2)cc1.O=C(O)C(=O)O,-39.3
10,Cc1c(C(=O)N2C[C@@H](C)O[C@@H](C)C2)oc2c(F)cccc12,5.94
11,O=C(Cn1cc2c(n1)CCCC2)Nc1ccccc1Br,1.06
12,COc1ccc(NS(=O)(=O)c2ccc(OCC(=O)N3CCN(C)CC3)cc2)cc1Cl,-7.55
13,CC(C)(C)Nc1c2ccccc2nc2ccccc12,-68.2
14,O=C(COC(=O)c1ccccc1Nc1ccccc1)c1ccccc1,13.5
15,COc1ccc(CCN2C(=O)c3[nH]nc(-c4ccccc4O)c3C2c2ccccc2)cc1OC (stereo not drawn),17.8
16,S=C1NNC2(NN1)C1CC3CC(C1)CC2C3,12.7
17,COC(=O)C1=C(C)N(CCc2ccc(OC)c(OC)c2)C(=O)C1,18.5
18,CS(=O)(=O)NC1c2cccc3cccc(c23)C1N1CCOCC1 (stereo not drawn),-11.4
19,O=C(CN1CCN(S(=O)(=O)c2ccc(Br)cc2)CC1)c1ccc(O)c(O)c1,-76.8
20,O=C(N/N=C/c1ccc(Br)s1)c1ccncc1,2.05
21,O=[N+]([O-])c1cccc(N(CC(O)CN2CCCCC2)S(=O)(=O)c2ccccc2)c1 (stereo not drawn),-43.8
